# Test results from a collection of fitness landscapes (doi:10.1016/j.celrep.2020.107928).
# In all, about 81,000 sequences were measured (“one-hybrid fitness for binding parS DNA”: median about -0.17, highest 2% from about 0.51 on). The list shows a part of the results.
# B1: Caulobacter ParB omega fusion; a variant is named by its letters at X, in order, B8GW30 (parent)
# chain: MESVVVGEPGMSEGRRGLGRGLSALLGEVDAAPAQAPGEQLGGSREAPIEILQRNPDQPRRTFREEDLEDLSNSIREKGVLQPILVRPSPDTAGEYQIVAGERAWRAAQRAGLKTVPIMVRELDDLAVLEIGIIENVQRADLNVLEEALSYKVLMEKFERTQENIAQTIGKSXSHVANXMRLLXLPDEVQSYLVSGELTAXHARAIAAAADPVALAKQIIEGGLSVRETEALARKAPNLSAGKSKGGRPPRVKDTDTQALESDLSSVLGLDVSIDHRGSTGTLTITYATLEQLDDLCNRLTRGI
# Variants of: B1
# Test: one-hybrid fitness for binding parS DNA (scaled: cognate 1, non-cognate 0); higher = stronger binding
# Conditions: with parS DNA site
# Procedure, shortened: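 The reporter was HIS3, with the binding site 19 bp from the promoter, in E. coli USO used for bacterial one-hybrid selection of Caulobacter ParB libraries with four specificity codons randomised. Growth was on M9 lacking histidine, with 0.1 mM IPTG and 5 mM 3-AT, for 48 hours at 37°C. Illumina sequencing covered plasmids before and after selection; three replicate libraries were pooled and variants with under 10 reads dropped. A fitness score is the log change in variant-to-wild-type read ratio, rescaled to the cognate and non-cognate references.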
row,Variant,one-hybrid fitness for binding parS DNA
1,DDPF,≤ 0.2
2,AWNV,≤ 0.2
3,QRTT,≤ 0.2
4,QDTI,≤ 0.2
5,MIAR,≤ 0.2
6,HSEA,≤ 0.2
7,PASV,≤ 0.2
8,AGPE,≤ 0.2
9,NKHI,≤ 0.2
10,LSRS,≤ 0.2
11,LLTW,≤ 0.2
12,YYSC,≤ 0.2
13,SKYS,≤ 0.2
14,RWIF,≤ 0.2
15,VCCR,≤ 0.2
16,VTIC,≤ 0.2
17,GGSV,≤ 0.2
18,HLCG,≤ 0.2
19,DGRW,≤ 0.2
20,DVVG,≤ 0.2
21,LMAR,≤ 0.2
22,PNPP,≤ 0.2
23,VGPE,≤ 0.2
24,PPPP,≤ 0.2

row,Variant,one-hybrid fitness for binding parS DNA
1,KAPL,≤ 0.2
2,NGRV,≤ 0.2
3,TAWR,≤ 0.2
4,VAIV,≤ 0.2
5,WRIL,≤ 0.2
6,KTKH,≤ 0.2
7,SGWC,≤ 0.2
8,TPCC,≤ 0.2
9,KYMV,≤ 0.2
10,FHVK,≤ 0.2
11,DSNI,≤ 0.2
12,YYTS,≤ 0.2
13,HTGC,≤ 0.2
14,VERS,≤ 0.2
15,RTSS,0.938
16,LPCV,≤ 0.2
17,CRET,≤ 0.2
18,SEEM,≤ 0.2
19,CSNK,≤ 0.2
20,QKNN,≤ 0.2
21,YALK,≤ 0.2
22,LTVK,≤ 0.2
23,RPLD,≤ 0.2
24,CLKM,≤ 0.2

row,Variant,one-hybrid fitness for binding parS DNA
1,GSKK,≤ 0.2
2,PRSP,≤ 0.2
3,VFNS,≤ 0.2
4,VMTY,≤ 0.2
5,APFI,≤ 0.2
6,SWLC,≤ 0.2
7,KNNL,≤ 0.2
8,PALE,≤ 0.2
9,TLET,≤ 0.2
10,EELY,≤ 0.2
11,EKAS,≤ 0.2
12,PKSE,≤ 0.2
13,AACN,≤ 0.2
14,SMDM,≤ 0.2
15,SWDL,≤ 0.2
16,LPLS,≤ 0.2
17,LTRW,≤ 0.2
18,YCVR,≤ 0.2
19,QRMT,≤ 0.2
20,ASIG,≤ 0.2
21,CITT,≤ 0.2
22,QCQV,≤ 0.2
23,TYSI,≤ 0.2
24,LDRF,≤ 0.2

row,Variant,one-hybrid fitness for binding parS DNA
1,WQTV,≤ 0.2
2,LWGF,≤ 0.2
3,GMNT,≤ 0.2
4,LKTR,≤ 0.2
5,ECKL,≤ 0.2
6,LNAC,≤ 0.2
7,RFNK,0.203
8,YIRC,≤ 0.2
9,QKAW,≤ 0.2
10,IIDW,≤ 0.2
11,DRMI,≤ 0.2
12,PPQY,≤ 0.2
13,PILR,≤ 0.2
14,WNAR,≤ 0.2
15,LFKR,≤ 0.2
16,QQRG,≤ 0.2
17,QRAH,≤ 0.2
18,LPLE,≤ 0.2
19,MRWL,≤ 0.2
20,IAAC,≤ 0.2
21,RRIN,0.304
22,NLKI,≤ 0.2
23,LILW,≤ 0.2
24,RVFK,≤ 0.2

row,Variant,one-hybrid fitness for binding parS DNA
1,CKET,≤ 0.2
2,NYSS,≤ 0.2
3,RHPT,0.336
4,TDNM,≤ 0.2
5,RPYK,≤ 0.2
6,WQNE,≤ 0.2
7,LHRM,≤ 0.2
8,AWFT,≤ 0.2
9,QIQS,≤ 0.2
10,QEDG,≤ 0.2
11,IYDI,≤ 0.2
12,CAGY,≤ 0.2
13,TLPK,≤ 0.2
14,HTNV,≤ 0.2
15,WTNT,≤ 0.2
16,ANTV,≤ 0.2
17,KEIV,≤ 0.2
18,RMNQ,≤ 0.2
19,KTHS,≤ 0.2
20,HHAF,≤ 0.2
21,QPSK,≤ 0.2
22,VVPC,≤ 0.2
23,VNTT,≤ 0.2
24,CADN,≤ 0.2

row,Variant,one-hybrid fitness for binding parS DNA
1,NNFS,≤ 0.2
2,NNRS,≤ 0.2
3,QLTQ,≤ 0.2
4,QQFT,≤ 0.2
5,SRFS,≤ 0.2
6,FKHR,≤ 0.2
7,FWHS,≤ 0.2
8,GTKY,≤ 0.2
9,KYIS,≤ 0.2
10,HAWY,≤ 0.2
11,AGIW,≤ 0.2
12,LRFS,≤ 0.2
13,ELCT,≤ 0.2
14,PSEV,≤ 0.2
15,WIVC,≤ 0.2
16,GSSI,≤ 0.2
17,ILFE,≤ 0.2
18,LVRE,≤ 0.2
19,WQLM,≤ 0.2
20,PITL,≤ 0.2
21,TAIR,≤ 0.2
22,WGTT,≤ 0.2
23,VRAP,≤ 0.2
24,QEQG,≤ 0.2

row,Variant,one-hybrid fitness for binding parS DNA
1,SGRV,≤ 0.2
2,CIYS,≤ 0.2
3,MLNV,≤ 0.2
4,YTHP,≤ 0.2
5,KSTM,≤ 0.2
6,CLQS,≤ 0.2
7,YNIV,≤ 0.2
8,PMKT,≤ 0.2
9,MPHG,≤ 0.2
10,TDMT,≤ 0.2
11,IRHS,≤ 0.2
12,ESLI,≤ 0.2
13,CIDG,≤ 0.2
14,WVPG,≤ 0.2
15,SISA,≤ 0.2
16,SVHN,≤ 0.2
17,HHAR,≤ 0.2
18,NRIG,≤ 0.2
19,PQSK,≤ 0.2
20,PYMC,≤ 0.2
21,MDRC,≤ 0.2
22,SSHD,≤ 0.2
23,PPHY,≤ 0.2
24,RCVS,1.02

row,Variant,one-hybrid fitness for binding parS DNA
1,GHRG,≤ 0.2
2,FPNR,≤ 0.2
3,GQHR,≤ 0.2
4,SGID,≤ 0.2
5,NPIP,≤ 0.2
6,GAPN,≤ 0.2
7,MQAL,≤ 0.2
8,QRPY,≤ 0.2
9,TTWM,≤ 0.2
10,TINC,≤ 0.2
11,TYTA,≤ 0.2
12,STTY,≤ 0.2
13,TAAD,≤ 0.2
14,NMMC,≤ 0.2
15,GFPT,≤ 0.2
16,RPAD,≤ 0.2
17,TTEK,≤ 0.2
18,CGGG,≤ 0.2
19,AYRY,≤ 0.2
20,GEDA,≤ 0.2
21,TSLE,≤ 0.2
22,VMFC,≤ 0.2
23,QFAT,≤ 0.2
24,QNQM,≤ 0.2

row,Variant,one-hybrid fitness for binding parS DNA
1,QGNA,≤ 0.2
2,IGAF,≤ 0.2
3,VILC,≤ 0.2
4,HGIS,≤ 0.2
5,ANCG,≤ 0.2
6,ASYR,≤ 0.2
7,RMFY,0.492
8,EPIC,≤ 0.2
9,QHKW,≤ 0.2
10,ASYV,≤ 0.2
11,LNYL,≤ 0.2
12,PAFC,≤ 0.2
13,QTYK,≤ 0.2
14,VGKS,≤ 0.2
15,AYFC,≤ 0.2
16,HRND,≤ 0.2
17,KVKY,≤ 0.2
18,SHRA,≤ 0.2
19,RSLR,≤ 0.2
20,PKPI,≤ 0.2
21,HPYG,≤ 0.2
22,AASD,≤ 0.2
23,LFRC,≤ 0.2
24,VWVK,≤ 0.2

row,Variant,one-hybrid fitness for binding parS DNA
1,DRYW,≤ 0.2
2,TDMR,≤ 0.2
3,QNQS,≤ 0.2
4,VNLT,≤ 0.2
5,RCQG,1.02
6,WCPS,≤ 0.2
7,YLES,≤ 0.2
8,WPAC,≤ 0.2
9,LRHQ,≤ 0.2
10,VRNG,≤ 0.2
11,ACGG,≤ 0.2
12,RNHM,≤ 0.2
13,MDPL,≤ 0.2
14,NMTG,≤ 0.2
15,LRTC,≤ 0.2
16,NPND,≤ 0.2
17,PLPC,≤ 0.2
18,IYTS,≤ 0.2
19,GVQC,≤ 0.2
20,MPHT,≤ 0.2
21,KFDR,≤ 0.2
22,MSAP,≤ 0.2
23,WHLC,≤ 0.2
24,CVIV,≤ 0.2

row,Variant,one-hybrid fitness for binding parS DNA
1,VYVT,≤ 0.2
2,STAG,≤ 0.2
3,AHNE,≤ 0.2
4,PFTS,≤ 0.2
5,TSDE,≤ 0.2
6,TFEE,≤ 0.2
7,GKSR,≤ 0.2
8,FSEF,≤ 0.2
9,AFPE,≤ 0.2
10,NSCL,≤ 0.2
11,GFNG,≤ 0.2
12,TADR,≤ 0.2
13,STDK,≤ 0.2
14,SQKA,≤ 0.2
15,PKME,≤ 0.2
16,DKDK,≤ 0.2
17,HLSA,≤ 0.2
18,TCQL,≤ 0.2
19,YDGC,≤ 0.2
20,KYCC,≤ 0.2
21,DDKR,≤ 0.2
22,YDNC,≤ 0.2
23,CSHW,≤ 0.2
24,ATNS,≤ 0.2

row,Variant,one-hybrid fitness for binding parS DNA
1,THFA,≤ 0.2
2,GKMI,≤ 0.2
3,PIVP,≤ 0.2
4,QQIE,≤ 0.2
5,AARD,≤ 0.2
6,RFDM,0.229
7,HDFG,≤ 0.2
8,TYQC,≤ 0.2
9,QIIG,≤ 0.2
10,YYKC,≤ 0.2
11,QERL,≤ 0.2
12,QRMW,≤ 0.2
13,TGKF,≤ 0.2
14,RGCD,≤ 0.2
15,APDS,≤ 0.2
16,PDRE,≤ 0.2
17,PSYR,≤ 0.2
18,VKWF,≤ 0.2
19,LTNI,≤ 0.2
20,KLRY,≤ 0.2
21,PQTI,≤ 0.2
22,CQTS,≤ 0.2
23,QRHC,≤ 0.2
24,ECLD,≤ 0.2

row,Variant,one-hybrid fitness for binding parS DNA
1,SPGV,≤ 0.2
2,QFMS,≤ 0.2
3,VSCH,≤ 0.2
4,PQTF,≤ 0.2
5,ECNG,≤ 0.2
6,AVNP,≤ 0.2
7,YCWS,≤ 0.2
8,NQQC,≤ 0.2
9,YDRS,≤ 0.2
10,MANC,≤ 0.2
11,ACAT,≤ 0.2
12,RWLY,0.266
13,SMLS,≤ 0.2
14,DYDS,≤ 0.2
15,LSNG,≤ 0.2
16,FLNF,≤ 0.2
17,PPMH,0.241
18,KLDW,≤ 0.2
